This is one part of the list. Single values of this set are uncertain. Values with irradiation are relative to irradiated vehicle.
The compounds below were run on A549-Dual (assay: ISRE reporter (Lucia luciferase) activity, viability-corrected, relative to vehicle (fold change vs vehicle); higher = more activation of STING-IRF / NF-kB immune response reporter). Conditions: 10 µM; irradiation: 8 Gy/4 fr.

Structure (SMILES)	ISRE reporter
CCOC(=O)n1ccn(C)c1=S [Carbimazole]	0.791
OCC(O)CN1CCN(c2ccccc2)CC1 (stereo unspecified) [Dropropizine]	0.988
Cc1cc(=O)n(-c2ccccc2)n1C [Antipyrine]	1.05
COc1ccc(CCNCC(O)COc2cccc(C)c2)cc1OC.Cl (stereo unspecified) [Bevantolol hydrochloride]	1.16
CC(O)C1C(=O)N2C(C(=O)OCOC(=O)C(C)(C)C)=C(SC3CN(C4=NCCS4)C3)C(C)C12 (stereo unspecified) [Tebipenem Pivoxil]	0.837
COC(=O)c1ccc(O)cc1 [Methyl 4-hydroxybenzoate]	0.697
O=C(O)CCCCC1CCSS1 (stereo unspecified) [Thioctic acid]	1.27
CCN(CC)CCOC(=O)C(c1ccccc1)C1CCCCC1.Cl (stereo unspecified) [Drofenine Hydrochloride]	0.835
Cc1ccc(Sc2ccccc2N2CCNCC2)c(C)c1 [Vortioxetine]	0.318
O=C1C(CCC(O)c2ccc(F)cc2)C(c2ccc(O)cc2)N1c1ccc(F)cc1 (stereo unspecified) [Ezetimibe]	0.594
O=C(Cn1cnnn1)NC1C(=O)N2C(C(=O)[O-])=C(CSc3nncs3)CSC12.[Na+] (stereo unspecified) [Ceftezole sodium]	0.789
Nc1ccc(O)cc1 [4-Aminophenol]	1.2
Cl.O=C(O)/C=C/c1ccc(Cn2ccnc2)cc1 [Ozagrel HCl]	0.794
CCCCC(CC)COC(=O)C=Cc1ccc(OC)cc1 (stereo unspecified) [Octinoxate]	0.689
NC(CSCCCO)C(=O)O (stereo unspecified) [Fudosteine]	0.91
CN1C2CCCC1CC(NC(=O)c1nn(C)c3ccccc13)C2 (stereo unspecified) [Granisetron]	1.02
COc1cc2c(cc1OC)C1Cc3ccc(OC)c(OC)c3CN1CC2.Cl (stereo unspecified) [Tetrahydropalmatine hydrochloride]	0.749
CC1(C)CC1C(=O)N/C(=C\CCCCSCC(N)C(=O)O)C(=O)O (stereo unspecified) [Cilastatin]	1.09

Structure (SMILES)	ISRE reporter
C=CCc1ccc(O)c(OC)c1 [Eugenol]	0.971
CC(CN1CC(=O)NC(=O)C1)N1CC(=O)NC(=O)C1.Cl (stereo unspecified) [Dexrazoxane HCl (ICRF-187, ADR-529)]	0.844
C/C(=C(\CCOC(=O)C(C)C)SS/C(CCOC(=O)C(C)C)=C(/C)N(C=O)Cc1cnc(C)nc1N)N(C=O)Cc1cnc(C)nc1N [Sulbutiamine]	0.495
COC(=O)c1ccc2c(c1)NC(=O)/C2=C(\Nc1ccc(N(C)C(=O)CN2CCN(C)CC2)cc1)c1ccccc1 [Nintedanib (BIBF 1120)]	1.05
Clc1ccc(Cn2c(CN3CCCC3)nc3ccccc32)cc1 [Clemizole]	0.378
Cc1nnc(SCC2=C(C(=O)O)N3C(=O)C(NC(=O)Cn4cc(Cl)c(=O)c(Cl)c4)C3SC2)s1 (stereo unspecified) [Cefazedone]	0.862
CC(C)(C)C(=O)OCOC(=O)C1N2C(=O)C(N=CN3CCCCCC3)C2SC1(C)C.Cl (stereo unspecified) [Pivmecillinam hydrochloride]	0.838
O=C(O)c1cc(=O)[nH]c(=O)[nH]1 [Orotic acid (6-Carboxyuracil)]	0.754
CN(C)CCOC(=O)C(c1ccccc1)C1(O)CCCC1.Cl (stereo unspecified) [Cyclopentolate Hydrochloride]	0.968
OCC(O)C(O)C(OC1OC(CO)C(O)C(O)C1O)C(O)CO (stereo unspecified) [Maltitol]	0.813
[OH][Al]([OH])[OH] [Aluminium hydroxide]	1.47
O=C(NCc1c(F)cc(F)cc1F)c1cn2c(c(O)c1=O)C(=O)N1C3CCC(C3)OC1C2 (stereo unspecified) [Bictegravir]	1.21
Cn1nnnc1SCC1=C(C(=O)[O-])N2C(=O)C(NC(=O)C(OC=O)c3ccccc3)C2SC1.[Na+] (stereo unspecified) [Cefamandole nafate]	0.893
CCC(NC(C)C)C(O)c1ccc(O)c2[nH]c(=O)ccc12.Cl (stereo unspecified) [Procaterol HCl]	0.651
CNCC(O)C(O)C(O)C(O)CO.CNCC(O)C(O)C(O)C(O)CO.O=C(O)CN1CCN2CCN(CC(=O)O)CC(=O)[O][Gd]([O]C(=O)C2)[O]C(=O)C1 [Gadopentetate Dimeglumine]	1.4
O=C(C1CCCCC1)N1CC(=O)N2CCc3ccccc3C2C1 (stereo unspecified) [Praziquantel]	0.53
CC(=O)OCC(COC(C)=O)OC(C)=O [Triacetin]	0.837
C#CC1(OC(C)=O)CCC2C3CCC4=CC(OC(C)=O)CCC4C3CCC21C (stereo unspecified) [Ethynodiol diacetate]	0.401
